# Whole data set: some 33,000 sequences, median “E-score (-0.5 to 0.5)” near -0.032, cut for the highest 2% near 0.36. This is one part of the list.
# Target: T1, Sko1 (UniProt Q02100)
# T1 sequence: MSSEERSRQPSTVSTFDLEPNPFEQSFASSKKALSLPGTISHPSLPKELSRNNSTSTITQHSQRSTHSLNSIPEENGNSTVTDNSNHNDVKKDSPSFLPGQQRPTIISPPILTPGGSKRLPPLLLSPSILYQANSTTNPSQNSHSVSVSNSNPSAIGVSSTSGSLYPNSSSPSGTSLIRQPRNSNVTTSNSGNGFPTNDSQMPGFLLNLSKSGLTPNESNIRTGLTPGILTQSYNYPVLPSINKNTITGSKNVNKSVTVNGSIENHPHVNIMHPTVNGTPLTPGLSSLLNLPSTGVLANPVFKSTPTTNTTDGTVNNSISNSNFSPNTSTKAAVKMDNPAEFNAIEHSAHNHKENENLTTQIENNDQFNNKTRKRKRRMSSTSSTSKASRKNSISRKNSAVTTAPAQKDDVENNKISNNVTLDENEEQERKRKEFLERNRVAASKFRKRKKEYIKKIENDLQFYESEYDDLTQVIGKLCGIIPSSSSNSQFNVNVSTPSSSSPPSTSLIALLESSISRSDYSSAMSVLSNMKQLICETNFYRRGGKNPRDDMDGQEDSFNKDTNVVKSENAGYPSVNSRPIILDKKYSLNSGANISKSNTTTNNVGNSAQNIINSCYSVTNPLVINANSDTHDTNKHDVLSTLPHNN
# Experiment: PBM E-score (8-mer binding enrichment) (E-score (-0.5 to 0.5)); higher = stronger / more preferred TF binding; most listed sequences are background and not binding sites
# Conditions: protein concentration: 200 nM; construct: GST-full length
# Procedure, shortened: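 Yeast transcription factors carrying a GST tag, as full-length proteins or DNA-binding domains, were produced by PURExpress in vitro transcription/translation. About 100-200 nM protein was applied to universal all-10-mer Agilent arrays, double-stranded by primer extension on fresh or once-stripped slides. Bound protein was detected with fluorescent anti-GST, and scans were normalised with masliner. The Universal PBM Analysis Suite gave each ungapped eight-base word, pooled with its reverse complement, an E-score, a modified Wilcoxon-Mann-Whitney statistic.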
row,Sequence,PBM E-score
1,CGGGGCAC,-0.179
2,CCGGAATC,-0.283
3,CACCCACA,0.00864
4,GATTATCC,-0.216
5,CCACGGGA,-0.164
6,AGGTACAC,-0.214
7,TAGACCCA,0.0152
8,AGGAAGGG,-0.288
9,ACTGTAGC,-0.173
10,AAAAAAAA,0.103
11,CTCTAGCA,0.0554
12,CGGCCGTA,-0.169
13,AATCTTGG,-0.159
14,CCGCCAGG,-0.18
15,TCCTCCCA,-0.226
16,CAGTGAGC,-0.134
17,AGGGGTTG,-0.184
18,ATGGTACA,-0.0602
19,TGCGACAA,0.112
20,GAAGAAGC,-0.116
21,ACCCGAAC,-0.00662
22,CGCCCCCA,-0.137
23,GCCGGGGA,-0.197
24,GGAGCCAA,-0.247
25,AACGCGGA,0.0471

row,Sequence,PBM E-score
1,GCTACTAA,0.0526
2,ATAGCATA,0.192
3,ATTAGGGG,-0.0496
4,CGGTCCCA,-0.281
5,CCGGCGAA,-0.0327
6,ACCCTGTC,-0.29
7,AGTAAGTA,0.193
8,AATCCGGG,-0.31
9,CTCTCCCC,-0.333
10,CGTCACGA,0.443
11,AGGCACTC,-0.232
12,CGGCTACA,-0.0312
13,GCTTTTCA,-0.13
14,AATAGATA,0.199
15,AATGTTGT,0.156
16,GTCACGTA,0.421
17,CTCGCGAG,-0.253
18,ACTGGTTC,-0.132
19,CCGCTGCG,-0.151
20,GGAGCCAC,-0.3
21,ACTATTAT,0.0509
22,ATGGTCTC,-0.119
23,ATCGAGCA,-0.112
24,CAAATGGG,-0.0572
25,CGCAGGCA,-0.132

row,Sequence,PBM E-score
1,ATACGTAA,0.491
2,CCAACCAG,-0.205
3,CACGCCGA,-0.213
4,CTCTCTAC,-0.0204
5,CCGACACG,-0.104
6,ATGGGTGA,-0.13
7,GTTCCACA,-0.15
8,GGGCACCA,-0.19
9,CGGTCGCA,-0.192
10,AAAAAATA,0.191
11,AGTTCTCA,-0.0606
12,TATACCAA,0.0595
13,GTATTGAA,0.266
14,CGGCGAAG,-0.223
15,TCTGGCAA,-0.261
16,GCTATCAA,0.00896
17,CGCGCGTA,0.19
18,AACAAATC,0.175
19,GTCTACCA,0.0128
20,TGTCTCAA,-0.0526
21,AGGTTATG,0.0862
22,AGCTCGAT,-0.139
23,GATCTGGA,-0.116
24,GAAGCTAA,0.0228
25,CTGTAAAA,0.0417

row,Sequence,PBM E-score
1,GCTACTCC,-0.343
2,ACAGTATA,0.0494
3,GGCATCTA,-0.053
4,GGACGTCA,0.466
5,ACAAACTA,0.00391
6,ATTCTTAG,0.0309
7,ACACCCTG,-0.252
8,CCCCCGTC,-0.201
9,AATTCTCG,0.0707
10,GGCATGAA,-0.00295
11,CCGCGTCC,-0.00078
12,AGAACGCC,-0.0918
13,AATGTAAT,0.257
14,AATGCAAA,0.0649
15,GATTAACC,-0.125
16,GATATAAA,0.166
17,ACGGCAAC,-0.0493
18,GATTATGC,-0.121
19,AAGAACCT,-0.0484
20,CCCGAGCG,-0.186
21,CCTAATGA,0.129
22,ACTATTGG,-0.179
23,CTATGTCA,0.338
24,ACAACTTG,-0.0253
25,AGGCTTTC,-0.0108

row,Sequence,PBM E-score
1,CGTTGAGA,0.0138
2,ACACCACA,0.114
3,ACCCTTGC,-0.172
4,GTAATTAA,0.237
5,GGTATCTA,0.0817
6,CTAACGTA,0.374
7,AGAGTGAC,0.122
8,TCATATGA,0.285
9,ACGCTCTC,-0.0672
10,GGAAACGA,0.0328
11,AAGCAGCC,-0.247
12,AGAATTAA,0.0421
13,AATGCCAT,0.157
14,AACCGGTT,-0.161
15,TCCGCCGA,-0.17
16,CAGGTCAG,-0.171
17,GCAGGTCA,-0.155
18,AACCGGGT,-0.303
19,ACACAGAA,-0.0522
20,TATCCAGA,-0.0266
21,CCGGGCCG,-0.27
22,AACAGAAC,0.0202
23,CACCTTAC,0.0212
24,AGGCTCTG,-0.222
25,TAGAAGGA,-0.19

row,Sequence,PBM E-score
1,ACACATGA,0.203
2,ATTGATTC,0.167
3,ATAGCGTG,-0.023
4,AAATGGTG,0.0316
5,TCAACTGA,-0.0387
6,AGGATAGC,-0.103
7,ACCGTCTG,-0.0712
8,ATAGGTGC,-0.114
9,TCGTAGAA,-0.00376
10,AGGCATAG,-0.159
11,CATTACAG,-0.0317
12,CCCCGGCA,-0.251
13,CGAGATAA,0.168
14,CGGGTTAA,-0.056
15,GGGGTGTA,-0.118
16,CGCCATCA,0.0661
17,AGCACCTA,-0.127
18,CATGACGG,0.326
19,ACTGTATC,0.0294
20,AACGCACC,0.0328
21,ATACAGTC,-0.0477
22,AAAAGGGG,-0.292
23,GGAAATAA,0.143
24,ATCTTCGC,0.1
25,ATGGAATG,-0.0704

row,Sequence,PBM E-score
1,CGAAAACA,0.0568
2,CAGGCTAA,-0.0734
3,GTTACCTA,0.0877
4,CGAGAGCA,-0.0844
5,ATTTCCGC,-0.143
6,AGATCCGA,0.0339
7,AACCGGTC,-0.146
8,CTTGAAAA,0.0514
9,AATTTCCC,-0.108
10,ATCCCCTA,-0.217
11,AGACCGGA,-0.243
12,CGCGCCCG,-0.264
13,ACGCTCAA,0.0466
14,AGCACAAG,-0.102
15,AAGCCTGT,-0.105
16,CGACTGTC,-0.188
17,CGCCGCAC,-0.0811
18,CGCAAATC,-0.0189
19,CTGCCACA,-0.171
20,GCGAGCAA,-0.231
21,CTCTAAAC,0.0109
22,AACTCTAA,0.0874
